# Among all 350,000 compounds or so, about 31,000 (8.9%) were called active. The shares of active, inactive and inconclusive entries below differ from those in the screen. The call rests on the fitted dose curve; in most records, active means well fitted inhibition curve with a large enough effect; inconclusive means small, poorly fitted or top-dose-only effect; inactive means no such curve, though single readings can be large or run the other way. Potencies beside an inconclusive call are fits to weak or partial responses and may not hold up.
# Target: Histone-lysine N-methyltransferase EHMT2 (Homo sapiens) (UniProt Q96KQ7)
# Assay: qHTS Assay for Inhibitors of Histone Lysine Methyltransferase G9a; further: nearly all actives have a fitted effect of over 75% in size
# Conditions: G9a H3K9 monomethylation, AlphaScreen, 2 h; activity, negative = inhibition: at 59 µM (top of the series) unless noted
# In short: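 Quantitative HTS format: methyltransferase activity on a biotin-tagged H3K9 peptide is measured by AlphaScreen, using a rabbit anti-monomethyl-H3K9 antibody with streptavidin donor and anti-IgG acceptor beads. Final levels are 20 nM enzyme, 500 nM peptide, 20 uM SAM; 2 h RT.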
# On the % scale 0 is the no-effect control and ±100 the full control effect; potency means the concentration at half of the fitted maximal effect; tags describe the fitted curve by direction and shape.
# Sequence of UniProt Q96KQ7 (Q96KQ7 whole entry, looked up): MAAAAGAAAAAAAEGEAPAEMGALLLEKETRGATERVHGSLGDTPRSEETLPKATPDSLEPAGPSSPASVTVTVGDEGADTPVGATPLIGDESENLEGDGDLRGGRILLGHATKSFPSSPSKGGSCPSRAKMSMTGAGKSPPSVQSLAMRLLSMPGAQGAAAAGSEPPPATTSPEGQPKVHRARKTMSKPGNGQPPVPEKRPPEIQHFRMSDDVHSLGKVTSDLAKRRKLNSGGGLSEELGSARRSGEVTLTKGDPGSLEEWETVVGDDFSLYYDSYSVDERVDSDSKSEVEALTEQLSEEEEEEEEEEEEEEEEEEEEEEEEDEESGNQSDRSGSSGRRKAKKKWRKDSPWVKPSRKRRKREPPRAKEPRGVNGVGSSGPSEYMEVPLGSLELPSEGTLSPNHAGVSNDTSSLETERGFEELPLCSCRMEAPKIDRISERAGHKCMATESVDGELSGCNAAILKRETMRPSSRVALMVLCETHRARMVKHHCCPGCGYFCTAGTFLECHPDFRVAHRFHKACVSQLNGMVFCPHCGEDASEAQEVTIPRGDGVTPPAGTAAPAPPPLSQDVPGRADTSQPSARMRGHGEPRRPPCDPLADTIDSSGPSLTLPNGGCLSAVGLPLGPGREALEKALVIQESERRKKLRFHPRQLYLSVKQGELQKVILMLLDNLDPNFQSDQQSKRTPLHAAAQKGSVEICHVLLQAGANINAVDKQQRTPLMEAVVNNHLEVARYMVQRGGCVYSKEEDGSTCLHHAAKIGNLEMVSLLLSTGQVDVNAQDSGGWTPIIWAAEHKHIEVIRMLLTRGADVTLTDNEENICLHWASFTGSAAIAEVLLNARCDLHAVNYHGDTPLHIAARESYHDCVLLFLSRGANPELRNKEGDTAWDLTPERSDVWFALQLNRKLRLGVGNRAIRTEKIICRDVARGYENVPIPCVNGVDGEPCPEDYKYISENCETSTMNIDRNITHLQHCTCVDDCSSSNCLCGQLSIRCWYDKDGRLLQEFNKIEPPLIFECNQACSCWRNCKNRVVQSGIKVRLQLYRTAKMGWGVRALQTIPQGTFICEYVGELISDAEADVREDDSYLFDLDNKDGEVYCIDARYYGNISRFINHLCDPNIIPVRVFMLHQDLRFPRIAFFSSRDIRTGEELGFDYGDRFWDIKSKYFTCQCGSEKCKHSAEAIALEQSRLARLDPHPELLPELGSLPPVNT
Compound,"activity, negative = inhibition",Potency
O=C(Nc1nc2ccc(S(=O)(=O)N3CCCC3)cc2s1)C1CCCO1 (centres undefined),inconclusive: -71.8% [inhibitor],–
O=C(NCc1cccnc1)c1ccc(N2CCOCC2)c([N+](=O)[O-])c1,inconclusive: -52.5% [inhibitor],–
COc1cc(/C=C/C(=O)OCC(=O)c2c(N)n(C)c(=O)n(C)c2=O)ccc1O,–,"inconclusive: 44.7 µM [inhibitor, partial curve]"
O=C1CN2Cc3c(ccc(Cl)c3Cl)N=C2N1,–,"inconclusive: 20 µM [inhibitor, partial curve]"
O=C(CCCc1c[nH]c2ccccc12)N[C@@H](Cc1c[nH]c2ccccc12)C(=O)O,–,"inconclusive: 89.1 µM [inhibitor, single point]"
CC(C)CCN(C(=S)Nc1cccc(F)c1)C1CCN(C(C)C)CC1,–,"inconclusive: 79.4 µM [inhibitor, partial curve, poor fit]"
O=C(COc1ccc(Cl)cc1)Nc1nnc2n1CCS2,–,"inconclusive: 2.82 µM [inhibitor, partial curve, poor fit]"
Cn1c(CNC(=O)c2ccco2)nnc1SCC(=O)Nc1ccc(Cl)cc1,–,inactive
CN(c1ccccc1)S(=O)(=O)c1cccc(C(=O)NNC(=O)c2ccncc2)c1,–,inactive
CN=C1NN=C(c2cc(C)n(-c3ccc(Cl)cc3)c2C)CS1,–,active: 31.6 µM
Cc1ccccc1S(=O)(=O)Cc1ccc(C(=O)N(C)C2CCCCC2)o1,–,"inconclusive: 89.1 µM [inhibitor, single point]"
Cc1ccc(C)c(C(=O)CSc2n[nH]c(C(C)C)n2)c1,–,"inconclusive: 44.7 µM [inhibitor, partial curve, poor fit]"
COc1nc(-c2ccccc2)ccc1-c1noc(-c2cccnc2)n1,–,"inconclusive: 1.58 µM [inhibitor, full curve, poor fit]"
O=C(NC(=O)c1ccc(Cl)cc1)Nc1ccc(-c2cnco2)cc1,–,inactive
O=C(CC1C(=O)NCCN1Cc1ccc(-c2ccccc2)cc1)NCc1ccccc1 (centres undefined),–,"inconclusive: 56.2 µM [inhibitor, partial curve, poor fit]"
CC(=O)Nc1ccc(SCC(=O)c2c(N)n(Cc3ccccc3)c(=O)n(C)c2=O)cc1,–,inactive
COc1ccc(N2CCN(c3nc(Nc4ccc(C)c(F)c4)nc(N4CCCC4)n3)CC2)cc1,–,active: 7.08 µM
CC(=O)Nc1ccc(NC(=O)c2oc3cc(C)c(C)cc3c2C)cc1,–,"inconclusive: 6.31 µM [inhibitor, partial curve, poor fit]"
CC(C)CN(CC(C)C)CC(O)COc1ccc([N+](=O)[O-])cc1 (centres undefined),–,inactive
